# Out of some 52,000 compounds screened, about 4,300 (8.3%) were called active. Cut-off read from the data, not from the text of the source: active = survival mostly below about 52% (no sharp cut-off); inactive = mostly above about 56%. This is one part of the list.
# System: DeltatarO mutant
# Experiment: S. aureus survival, RN4220 and DeltatarO strains – OD600, teichoic acid synthesis inhibitors, primary screen (AID 463173)
# Details: S. aureus RN4220 wild type/DeltatarO growth, OD600, 18 h, hits give low values, screened at 18.75 µg/mL (by protocol)
row,SMILES,survival
1,O=C(CCCCn1c(=O)c2ccccc2n(Cc2cccc(F)c2)c1=O)NCc1ccc2c(c1)OCO2,inactive: 92%
2,O=C(O)c1ccc2nc(-c3cc4cc(Cl)ccc4oc3=O)[nH]c2c1,inactive: 69%
3,Cc1ccc(C(=O)c2oc3ccccc3c2NC(=O)Cc2coc3ccc(C)cc23)cc1,inactive: 63%
4,CN1/C(=C\C(=O)Nc2cccnc2)c2ccccc2CC1(C)C,inactive: 65%
5,Cc1ccc(-c2nc3c4ccccc4n(CC(=O)NCc4ccc(F)cc4)c(=O)n3n2)cc1,inactive: 124%
6,O=c1c2ccccc2n(Cc2c(F)cccc2Cl)c(=O)n1CCc1ccccc1,inactive: 85%
7,Cc1cc2c(cc3c(SCc4ccc(Cl)cc4)nncn32)o1,inactive: 72%
8,COc1ccc(C)cc1NC(=O)c1cnc2ccc(C)cn2c1=O,inactive: 90%
9,OCCNc1ccc(Cl)cc1,inactive: 75%
10,COCCNC(=O)CCCn1c(SCC(=O)c2ccc(Br)cc2)nc2c(sc3ccccc32)c1=O,inactive: 68%
11,Cc1ccn2c(=O)cc(COc3ccc(NC(=O)COc4ccc(C)c(C)c4)cc3)nc2c1,inactive: 101%
12,Cc1ccc(OCC(=O)NCC(c2ccc(Cl)cc2)N2CCOCC2)cc1C (stereo not given),inactive: 65%
13,CCOc1cc(C2c3c(oc4ccccc4c3=O)C(=O)N2Cc2ccc(OC)cc2)ccc1O (stereo not given),inactive: 145%
14,COc1cccc(C(=O)Nc2cccc(-c3nc4ncccn4c3C)c2)c1,inactive: 118%
15,O=C(O)c1c(-c2ccccc2)oc2ccc(OCc3c(F)cccc3Cl)cc12,active: 29%
16,Cn1c(=O)c2c(-c3ccc(Br)cc3)n(Cc3ccc(F)cc3)cc2n(C)c1=O,active: 49%
17,COc1ccc(-c2nc3cc(C)ccn3c2NC(=O)c2cccc(F)c2)cc1,active: 53%
18,Cc1csc(NC(=O)c2cccnc2)n1,inactive: 72%
19,CCc1nn(CC(=O)NCCCN(CC)CC)c(=O)c2cc3occc3n12,inactive: 122%
20,Cn1c(SCC(=O)Nc2nc3ccccc3s2)ncc(C(=O)Nc2ccccc2)c1=O,inactive: 73%
21,O=C1COc2cc(S(=O)(=O)CCC(=O)NC3CCCCC3)c(Cl)cc2N1,inactive: 93%
22,COc1ccc(C)cc1-n1cnc2cc(C(=O)NC3CCCCCC3)ccc21,inactive: 94%
23,Cc1ccc2onc(CNC(=O)NCc3ccc(Cl)cc3)c2c1,inactive: 77%

row,SMILES,survival
1,O=C(O)C(NS(=O)(=O)c1ccccc1)C(O)c1ccccc1 (stereo not given),inactive: 102%
2,CCSc1ncc(Cl)c(C(=O)Nc2c(C(=O)Nc3ccccc3)oc3ccccc23)n1,inactive: 104%
3,CCOc1ccc(CCNC(=O)CCCc2nnc3n(CC)c(=O)c4sccc4n23)cc1,inactive: 80%
4,O=C(CSc1nccn1-c1cccc(Cl)c1)Nc1cccc2ccccc12,inactive: 74%
5,CCCC(=O)N1CCc2cc(OC)c(OC)cc2C1COc1ccc(C(=O)OC)cc1 (stereo not given),inactive: 83%
6,C=CCn1c(N)nc2c1c(=O)n(C)c(=O)n2C,inactive: 95%
7,CCN(CC)C(=O)Cn1c(=O)n(CC2CCC(C(=O)NC)CC2)c(=O)c2sccc21 (stereo not given),inactive: 112%
8,COc1ccc(CCNC(=O)C2CCN(Cc3nc(-c4ccc(OC)c(OC)c4)oc3C)CC2)cc1OC,inactive: 92%
9,Cc1ccc(/C=C(\C#N)C(=O)Nc2cccc(Cl)c2)o1,inactive: 74%
10,N#Cc1c(/N=C/c2ccc3c(c2)OCO3)oc(-c2ccccc2)c1-c1ccccc1,inactive: 97%
11,O=C(NCCn1cc(SCc2ccc(Br)cc2)c2ccccc21)c1cccs1,inactive: 110%
12,O=C(Nc1ccccc1)c1cc2n(n1)C(C(F)(F)F)CC(c1ccco1)N2 (stereo not given),inactive: 99%
13,COC(=O)c1sc(-c2ccccc2)cc1NC(=O)Nc1ccc(F)cc1,active: 21%
14,COc1ccc(C(CC(=O)NCc2ccc(Cl)cc2)N2Cc3ccccc3C2=O)cc1OC (stereo not given),inactive: 89%
15,COc1ccc2[nH]c(=O)c(CN(CCO)S(=O)(=O)c3ccc(Cl)c(C(F)(F)F)c3)cc2c1,inactive: 98%
16,Cc1ccc(OCC(=O)Nc2ccc(S(=O)(=O)Nc3cc(C)on3)cc2)c(Br)c1,inactive: 56%
17,CCNC(=S)Nc1cc(-c2ccc(Cl)cc2)[nH]n1,active: 20%
18,Cc1cc(C)cc(NC(=O)C2CCCN2S(=O)(=O)c2ccc3nc(-c4ccccc4)[nH]c3c2)c1 (stereo not given),active: 38%
19,O=C(CSc1nc(-c2ccccc2F)nc2cc(=O)[nH]n12)Nc1cccc(C(F)(F)F)c1,inactive: 69%
20,CCOc1ccccc1-c1nc(Cn2c(=O)cc(C)c3c(C)nn(-c4ccccc4)c32)c(C)o1,inactive: 87%
21,Cc1cc(C)cc(OCCCn2c(-c3ccc(Cl)cc3)nc3ccccc3c2=O)c1,inactive: 58%
22,COc1ccc(Cn2c(CCC(=O)Nc3ccc(C)cc3C)nc3cccnc32)cc1,inactive: 71%
23,Cc1oc2ccc(O)c(CN3CCN(C)CC3)c2c1C(=O)Nc1ccccc1,inactive: 88%

row,SMILES,survival
1,CC(C)OCCCNC(=O)c1ccc(Cn2c(=O)c3cccn3c3cccnc32)cc1,inactive: 116%
2,COc1cccc(CNC(=O)c2cccc(-n3c(C)nc4cccnc43)c2C)c1,inactive: 94%
3,Cc1cccc(CSc2nc(=O)c3c(n2C)NC(=O)CC3c2cc(F)cc(F)c2)c1 (stereo not given),inactive: 43%
4,Cc1oc2ncn(C)c(=O)c2c1C(=O)Nc1ccc(F)cc1,inactive: 72%
5,CCc1nn(CC(=O)NCCc2ccc(Cl)cc2)c(=O)c2cc3ccccc3n12,inactive: 85%
6,Cc1cc(N2CCN(c3ccc(F)cc3)CC2)n2nc(-c3ccc(Cl)cc3)nc2n1,inactive: 49%
7,CCOC(=O)c1[nH]c(C)c(CCC(=O)Nc2ccccc2C(=O)OC)c1C,inactive: 77%
8,CCOc1ccc2nc(N(Cc3cccnc3)C(=O)C3CCCCC3)sc2c1,inactive: 94%
9,O=c1[nH]c(Nc2nc3ccccc3o2)nc2ccccc12,inactive: 95%
10,Cc1ccc(C2CCN(C(=O)Nc3ccc(Cl)c(Cl)c3)C2)cc1 (stereo not given),active: 20%
11,Cc1ccc(-c2nnc(Nc3ccccc3)c3ccccc23)cc1S(=O)(=O)N1CCOCC1,inactive: 59%
12,Cc1ccc(CNC(=O)c2ccc3c(c2)N(Cc2ccccc2Cl)C(=O)CS3)cc1,inactive: 50%
13,Cc1cccc(N2CCN(C(=O)c3oc(=O)c4ccccc4c3-c3ccccc3)CC2C)c1 (stereo not given),inactive: 74%
14,Cc1ccc(CNC(=O)CSc2nnc(C)c3c(C)n(-c4ccccc4)nc23)cc1,inactive: 73%
15,CC1CCN(S(=O)(=O)c2ccc3c(ccc(=O)n3CC(=O)NCc3ccccc3Cl)c2)CC1,inactive: 69%
16,CC(C(=O)N1c2ccccc2CCc2ccccc21)n1nnc(-c2ccc(N(C)C)cc2)n1 (stereo not given),inactive: 90%
17,COc1ccc(-c2[nH]ncc2C(=O)NCc2cccc(OC)c2)cc1,inactive: 85%
18,COc1cccc(CNCc2cccn2-c2nnc(N3CCN(c4ccccc4)CC3)s2)c1,inactive: 79%
19,O=C(CCn1c(=O)c2sccc2n(CC(=O)Nc2ccccc2)c1=O)NCc1ccccc1Cl,inactive: 75%
20,CCOc1cccc2cc(-c3cn4c(n3)sc3ccccc34)c(=O)oc12,inactive: 72%
21,O=S(=O)(c1ccc(Cl)cc1)c1nnn2c1nc(NC1CCCCC1)c1sccc12,inactive: 41%
22,CCC1CN(C(=O)N2CCC(C(=O)NCc3cc(OC)c(OC)c(OC)c3)CC2)c2ccccc2O1 (stereo not given),inactive: 81%
23,COCCNC(=O)Nc1ccc2c(c1)nc(C)n2C,inactive: 91%

row,SMILES,survival
1,CN(C)c1ccc(NC(=O)Cn2nnc3sc4c(c3c2=O)CCC(C(C)(C)C)C4)cc1 (stereo not given),inactive: 79%
2,CCSc1ncc(Cl)c(C(=O)Nc2nc3ccc(Cl)cc3s2)n1,inactive: 100%
3,O=C(Nc1ccc2c(c1)OCCO2)C1CCCN(S(=O)(=O)Cc2ccccc2)C1 (stereo not given),inactive: 102%
4,O=C(Nc1ccc(O)c(-c2nc3ccccc3o2)c1)c1ccc(Br)cc1,inactive: 80%
5,CN(C)CC1(c2ccccc2)CCCC1,inactive: 72%
6,Cc1cc(S(=O)(=O)N(C)Cc2ccccc2)ccc1-n1cnnn1,inactive: 81%
7,CCN(C(=O)CCNC(=O)Cn1cnc2ccccc2c1=O)c1cc(OC)ccc1OC,inactive: 79%
8,COc1ccc(NC(=O)CSC2=Nc3ccccc3N=C(c3ccc(F)cc3)C2)cc1OC,inactive: 86%
9,O=C1c2cccc3c(N4CCCCC4)ccc(c23)C(=O)N1c1ccccn1,inactive: 88%
10,Cc1ccc2c(c1)c1c(c(=O)n(-c3ccccc3C)c(=O)n1CC(=O)c1ccc(Cl)cc1)n2C,inactive: 90%
11,CCc1ccc(NC(=O)N(Cc2c[nH]c3ccccc23)C2CCCCC2)cc1,inactive: 84%
12,CCOc1cc(C(=O)Nc2ccc(NC(=O)c3cc4ccccc4o3)c(OC)c2)cc(OCC)c1OCC,inactive: 111%
13,Cc1ccc(NC(=O)Nc2c[nH]c(=O)[nH]c2=O)c(Cl)c1,inactive: 94%
14,CC(=O)N(C1=NCCCCS1)c1ccccc1,inactive: 77%
15,CCOc1ccc2nc(N3CCCC(C(=O)Nc4cc(C)ccc4C)C3)sc2c1 (stereo not given),inactive: 103%
16,Cc1ccc(NS(=O)(=O)c2cc(-c3cc(C)no3)ccc2C)c(Cl)c1,inactive: 94%
17,CCc1ccccc1NC(=O)CSc1nnc(-c2ccc(OC)cc2)s1,inactive: 80%
18,CC(=O)Nc1ccc(NC(=O)C2CCN(S(=O)(=O)c3ccc4c(c3)CCCC(=O)N4)CC2)cc1,inactive: 85%
19,Cc1cccc(NC(=O)c2oc3ccccc3c2NC(=O)c2cc(=O)c3ccc(C)cc3o2)c1,active: 28%
20,Cc1cc(NC(=O)CCc2nc3cccnc3n2Cc2cccs2)ccc1Br,inactive: 50%
21,Cc1ccc(-n2c(=O)c3c(cnn3C)n(Cc3ccc(Cl)cc3)c2=O)cc1,inactive: 144%
